In PMC6522533 (2019):
No constants are given. Whether binding was seen depends on the method and setting. For some of these results: Binding seen in cells or lysates may run through a third protein. Some binding calls cover weakened binding; strength is not graded here.

Protein sequences, listed by entry. Tags and fused reporters are not part of them.
UniProt O35253: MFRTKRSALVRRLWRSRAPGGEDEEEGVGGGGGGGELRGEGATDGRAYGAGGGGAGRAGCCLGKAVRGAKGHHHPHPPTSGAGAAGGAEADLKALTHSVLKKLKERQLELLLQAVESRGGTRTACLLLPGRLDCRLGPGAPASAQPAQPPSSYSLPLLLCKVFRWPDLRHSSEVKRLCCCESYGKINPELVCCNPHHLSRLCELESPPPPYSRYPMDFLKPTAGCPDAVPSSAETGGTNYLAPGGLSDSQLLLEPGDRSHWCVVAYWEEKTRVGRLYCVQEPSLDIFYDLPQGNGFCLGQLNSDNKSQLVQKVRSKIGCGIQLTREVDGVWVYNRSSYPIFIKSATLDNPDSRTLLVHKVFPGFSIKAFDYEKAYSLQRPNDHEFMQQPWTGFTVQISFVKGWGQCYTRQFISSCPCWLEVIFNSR

Tests used:
GST-β-catenin aa1–106 = biological target: T1, GST-β-catenin aa1–106 (Mus musculus (Mouse), UniProt Q02248); assay: pull-down; GST-β-catenin (FL or fragments, molar equivalents) on glutathione-agarose beads with Smad7 freed of GST by thrombin; NETN buffer, overnight at 4 °C; immunoblot with anti-Smad7 polyclonal antibody; both purified
T1 chain: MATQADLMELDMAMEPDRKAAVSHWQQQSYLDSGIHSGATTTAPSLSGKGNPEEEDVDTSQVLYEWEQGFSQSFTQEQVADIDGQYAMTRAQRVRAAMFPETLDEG

GST-β-catenin aa1–574 = biological target: T2, GST-β-catenin aa1–574 (Mus musculus (Mouse), UniProt Q02248); assay: as above
T2 chain: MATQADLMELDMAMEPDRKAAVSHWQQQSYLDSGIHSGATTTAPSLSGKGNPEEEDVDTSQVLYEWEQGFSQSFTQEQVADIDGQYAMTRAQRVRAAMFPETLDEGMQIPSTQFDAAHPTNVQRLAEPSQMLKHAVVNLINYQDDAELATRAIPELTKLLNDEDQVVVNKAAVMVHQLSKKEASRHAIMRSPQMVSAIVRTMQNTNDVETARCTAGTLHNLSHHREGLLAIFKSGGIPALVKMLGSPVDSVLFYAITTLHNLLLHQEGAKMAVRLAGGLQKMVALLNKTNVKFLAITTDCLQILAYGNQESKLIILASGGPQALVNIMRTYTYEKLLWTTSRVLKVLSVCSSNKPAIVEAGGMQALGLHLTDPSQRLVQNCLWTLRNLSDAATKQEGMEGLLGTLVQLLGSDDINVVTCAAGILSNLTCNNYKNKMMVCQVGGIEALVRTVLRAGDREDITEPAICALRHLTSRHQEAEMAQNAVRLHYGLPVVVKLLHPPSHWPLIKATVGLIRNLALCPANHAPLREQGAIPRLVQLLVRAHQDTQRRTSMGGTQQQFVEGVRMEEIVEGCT

GST-β-catenin aa422–683 = biological target: T3, GST-β-catenin aa422–683 (Mus musculus (Mouse), UniProt Q02248); assay: as above
T3 chain: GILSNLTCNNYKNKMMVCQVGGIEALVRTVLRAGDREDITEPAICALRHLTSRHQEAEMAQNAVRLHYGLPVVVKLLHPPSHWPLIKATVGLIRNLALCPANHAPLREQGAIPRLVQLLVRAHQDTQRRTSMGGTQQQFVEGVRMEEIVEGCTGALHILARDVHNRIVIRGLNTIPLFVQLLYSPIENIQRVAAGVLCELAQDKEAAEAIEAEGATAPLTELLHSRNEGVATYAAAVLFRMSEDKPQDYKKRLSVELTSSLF

GST-β-catenin aa575–696 = biological target: T4, GST-β-catenin aa575–696 (Mus musculus (Mouse), UniProt Q02248); assay: as above
T4 chain: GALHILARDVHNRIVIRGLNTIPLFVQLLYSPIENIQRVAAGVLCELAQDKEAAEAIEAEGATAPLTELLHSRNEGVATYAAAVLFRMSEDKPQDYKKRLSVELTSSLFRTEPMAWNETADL

[1] = biological target: GST-β-catenin full length (FL) (UniProt Q02248); assay: as above
GST-β-catenin aa575–683 = biological target: T5, GST-β-catenin aa575–683 (Mus musculus (Mouse), UniProt Q02248); assay: as above
T5 chain: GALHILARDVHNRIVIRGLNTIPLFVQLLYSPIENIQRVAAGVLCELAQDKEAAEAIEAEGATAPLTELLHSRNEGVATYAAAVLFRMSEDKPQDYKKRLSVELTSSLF

GST-β-catenin aa120–683 = biological target: T6, GST-β-catenin aa120–683 (Mus musculus (Mouse), UniProt Q02248); assay: as above
T6 chain: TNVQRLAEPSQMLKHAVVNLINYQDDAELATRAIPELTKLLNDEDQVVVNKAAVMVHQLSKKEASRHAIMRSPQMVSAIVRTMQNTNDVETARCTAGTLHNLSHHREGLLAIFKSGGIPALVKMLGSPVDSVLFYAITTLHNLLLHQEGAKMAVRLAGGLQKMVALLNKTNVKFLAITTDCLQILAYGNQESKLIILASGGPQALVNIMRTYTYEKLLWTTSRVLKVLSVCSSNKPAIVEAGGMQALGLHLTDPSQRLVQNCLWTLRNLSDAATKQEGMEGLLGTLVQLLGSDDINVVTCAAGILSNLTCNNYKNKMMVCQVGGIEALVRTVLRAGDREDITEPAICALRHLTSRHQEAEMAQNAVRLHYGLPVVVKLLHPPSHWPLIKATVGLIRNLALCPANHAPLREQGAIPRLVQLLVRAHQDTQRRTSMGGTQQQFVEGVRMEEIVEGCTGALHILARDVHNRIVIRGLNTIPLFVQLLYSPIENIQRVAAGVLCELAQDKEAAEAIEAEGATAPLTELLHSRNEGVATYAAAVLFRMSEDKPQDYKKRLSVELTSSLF

[2] = biological target: Smad7 (endogenous) (mouse (endogenous in tibialis anterior muscle and C2C12)) (UniProt O35253); assay: co-IP; total protein lysates (NP-40 lysis buffer) of mouse tibialis anterior muscle and C2C12 myoblasts; IP with Smad7 antibody (text: β-catenin and Smad7 antibodies), ImmunoCruz Optima Kit; western blot
Smad7-Flag = Smad7-Flag (UniProt O35253); assay: co-IP; lysates of C2C12 myoblasts transiently transfected with Smad7-Flag; IP with β-catenin or Flag antibody, IgG as control; western blot for β-catenin
GST-Smad7 = GST-Smad7 (UniProt O35253); assay: pull-down; GST-Smad7 or GST on glutathione-agarose beads with 6xHis-β-catenin; 5 µg protein, NETN buffer (100 mM NaCl, 20 mM Tris-HCl pH 8, 0.5 mM EDTA, 0.5% NP-40), overnight at 4 °C; western blot; both purified

Substance: Smad7 (GST tag removed by thrombin) (from UniProt O35253 1-426)
- binding (GST-β-catenin aa1–106): no binding
- binding (GST-β-catenin aa1–574): no binding
- binding (GST-β-catenin aa422–683): binds
- binding (GST-β-catenin aa575–696): binds
- binding [1]: binds
- binding (GST-β-catenin aa575–683): binds
- binding (GST-β-catenin aa120–683): binds

Substance: β-catenin (endogenous) (from UniProt Q02248 1-781)
- binding [2]: binds
- binding (Smad7-Flag): binds

Substance: 6xHistidine (6xHis)-β-catenin fusion protein (from UniProt Q02248 1-781)
- binding (GST-Smad7): binds
